Our source for the RUNX1 binding intensity values is the supplement of paper PMC10681739.

± gives the standard deviation of the averaged measurements. The full ranking holds about 4,000 sequences; the median of “arbitrary fluorescence units” is about 830, and the highest 2% start at about 6,500. This part holds few or none of the hits.
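Note: Full-length recombinant human RUNX1 bound to double-stranded DNA microarray spots, detected with an Alexa488-labelled secondary antibody after the anti-RUNX1 primary, read as scanned spot fluorescence.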

The target of this assay is RUNX1 (UniProt Q01196). Briefly: RUNX1 binding intensity (PBM fluorescence), RUNX1 alone (arbitrary fluorescence units); higher = stronger binding. The settings on record: RUNX1 concentration 2 nM; ETS1 concentration 0 nM. Here is the method: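 gcPBM on 36-bp genomic-derived probes (partner site mutated) containing one RUNX1 site and no ETS1 site. Recombinant human RUNX1 (2 nM) was incubated alone or with ETS1 (25 nM) and detected by anti-RUNX1 antibody fluorescence. Values are medians over 4 replicate spots (not normalised). The probes sit in constant array flanks that are not printed.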
Chain of UniProt Q01196 (Q01196 whole entry): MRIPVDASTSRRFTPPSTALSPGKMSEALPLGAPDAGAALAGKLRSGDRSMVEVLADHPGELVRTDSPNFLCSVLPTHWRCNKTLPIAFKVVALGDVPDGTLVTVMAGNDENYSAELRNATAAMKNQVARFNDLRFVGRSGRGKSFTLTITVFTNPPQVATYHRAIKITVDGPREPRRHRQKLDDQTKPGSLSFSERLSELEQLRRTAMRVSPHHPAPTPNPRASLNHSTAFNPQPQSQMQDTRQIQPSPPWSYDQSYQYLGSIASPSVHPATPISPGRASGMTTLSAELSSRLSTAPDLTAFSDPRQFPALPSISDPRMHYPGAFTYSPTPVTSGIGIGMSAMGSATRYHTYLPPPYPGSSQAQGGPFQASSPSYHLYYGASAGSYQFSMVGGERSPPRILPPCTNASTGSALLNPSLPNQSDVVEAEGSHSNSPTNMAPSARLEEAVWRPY
The sequence TTATCTCCTCTTTTTTTTTTTTTTTTTGGTTTTGCT gave an RUNX1 binding intensity of 1870.
The figure for CCAAGTGTAAAACAGAAGCTCAACCACGAATCTTAC is 750; for CGCCGAACGTAGTGACGTAGCGCGCAGCCGCAGCGG it is 656.
The figure for AACAAGCCACAGGTGAGTCAGCATGCCACCTCCCGA is 773; for ATTTAGGAGGGAGTTTCCAGTACCACAACCTCACAG it is 850.
GGGCGGGGCATTGTGGGTAAGAGGAGACGCTGGGGC returned an RUNX1 binding intensity of 871.
In the case of GCCCCTGATAGCGTCCTCACCATCCCCACAGCGCCT it was 1100; in that of GTGCTGCGGCCGCGGCCGAGAGAGGCAGTAGATCCC, 823; in that of AACCTCCGACTTTCGGCCGCGCAGCGGTGGGCTGAG, 694.
The figure for GTGCATCCACCACATGGTTCATTCTCAGGCTATGGT is 828; for GCCGCCACAAGCTGCCTGGGTGACCCGAAAACGGCA it is 751; for ACGTGGTCAGATCCCCAACCCTTCCCTGAAAGGGGA it is 839.
CCTTGCTACAGCATGTTTTGACCACGAGCCCAGGAG displayed an RUNX1 binding intensity of 995.
The figure for TCTGCACCTCCGAGAAGCCTCCGTGGTTTGCTGCCA is 796; for CGGCCTCTTCGGCCAAAACTCCGGCCCGCGGTCCCG it is 932; for CTCTCAGACTCAGAATGAGGTGGCGGTAGGTGGGGT it is 690.
In turn, TCATGTACGTGAAGCCCAGCTCCCGCAGCGCGCCCA registered an RUNX1 binding intensity of 788.
Sequence ATGGCGAAGCAGCATGCCCTCAACCCACATACGGCA gave an RUNX1 binding intensity of 885.
The figure for GTGGAGGAACCGCGAGCCGCCTTGCTCCCCGGCCCA is 783; for GCCCGAGGTTCGGGTCCATGGACCGCGGGCGCCGAG it is 665.
The figure for CGCCGAATGCATAAAAGACTGGCTGCGGTGGCTCAG is 771; for GACTCTTGTGGTTGCACCGCGCTCCCTGCCAGCTTG it is 1940.
In the case of CTGTGCGGTCATGTGACGGAGGCCTGAAGGCAGGTC it was 1410; in that of TACCACCTCAGCATGTCTGAACCACATGCAAGCAGG, 715; in that of TACTTCTTCATGGCAGAGACCGGGAGTGCGGTCCGC, 781.
The sequence TAAAATTGCGGGAGGGGACTTGGTCCTTCATGTTGC had an RUNX1 binding intensity of 849.
Sequence GAGGCCGCAGAAAGGCCTGAGATGCAGCAAGCAGCT showed an RUNX1 binding intensity of 687.
In the case of AACATTACGGAGGTTTCTCTACCCATGCGGTGTCTC it was 958.
The figure for ACACCGCTCATGAAGACAAAGCCACACCTCACACCA is 1270; for AAGGCTGACGAAGGGAAAATTGTGGTTGGGCAGAGG it is 995.
In the case of GTACGTCTCCTCATTGACTGGCCAACCACTATCATG it was 950; in that of TTGTGGTTGCCGGGGATCGCTGTTGCCAGCCTGACT, 738; in that of GTGAGCCACAAGGGCCCCTGGGTCCTTGCTCCAAAC, 641 ± 9.1.
Turning to ATAAAGAAAACCACTAACCAGTAACATACGGCTCAG, the RUNX1 binding intensity came to 1040.
In the case of GTGACTCCGCGGTGTACAGCTGCCTTCACCCCACTT it was 976; in that of CGTGTGTGGGGGCGCAAGGCAGCGGCAGCTTCGGCC, 853.
The figure for CTGAGCCGTATGTTACTGGTTAGTGGTTTTCTTTAT is 972; for CTGAGCAGTGTGGTTGGCCCTCACCTCCTCATCGGC it is 866.
In the case of TAATTTTTTTTAACCACTTCCAGGAGATCTTGCCCA it was 1080.
In turn, TTGCGGTTGGCAGACAGCAGAGCAAAGGCAATTGGG displayed an RUNX1 binding intensity of 881.
In the case of TGAAGTTGTGGGGTGTTTTTATCAGCAGCAAACAGC it was 751; in that of AATGGCGGGAGGTAAGAGGAATGTGGGCCTGACTGC, 701.
In turn, TGGAACCATCACCCACAACCAGAGGAATCTGTCTGG displayed an RUNX1 binding intensity of 824.
In the case of TTATCTGTGGTTCTTTTATGGGGTGGGCTGCCTCTG it was 1370; in that of CGGGGCTTACGGCGCGCTGCCTTGTGGGCACGGTAG, 703.
In the case of CACTCCCCTCCCGCGGTCACACTTCAGGCGGCCACC it was 1460; in that of AGATGGTGTGGCTGGATGGGGACCACATTGAAGAGA, 730.
In the case of CTGTGGTTGGGCTGTGTAGGTGCGGATTGCCTGGCT it was 730; in that of GCGAATCTGCGGCATCCAACATGGCGTATGGAGTCT, 721; in that of CTCTTGGCGGGCGTTCCACATTACCACTGACTTTGT, 1070.
As for CTAGGCAGTGTCTGTAGGCGCAGCTGCGGGTCCGGG, the RUNX1 binding intensity worked out at 689.
GTGTACGGCAGCTGAGAGGGCCCGCGGGTAGGCATG gave an RUNX1 binding intensity of 686.
As to GTAAGAACCACAACCCCTCGAGAGGCAGCACTTTTG, the RUNX1 binding intensity was 1020.
In the case of CTCCACTCGCGGTTTCGTGCCTCCCTTCAGTGCCGA it was 2790; in that of CCTACCGCGGAGAGAAGGCTCTTTATCTCCTAGCCG, 893.
In turn, ACGCCCGCTGACCACACTGGCGACGTCCCTCTCTGT gave an RUNX1 binding intensity of 1400.
In the case of AGCCCTAAACAACCGCTGAACCACTTGCTGTCACTG it was 989; in that of CGATTCTGGATTGGTCCAGTTCCAGCGCCGCAGCCC, 724.
In the case of CGGGCCCGACGGACACCATGTTTGTGGCTCGCAGCA it was 705.
The sequence AGGGACGAGGCAAGTCGTGGTGGTCGCGAGGGAGCC showed an RUNX1 binding intensity of 673.
The figure for CCCCTCAGCTCCCGGGTGCTGCGGCCGCGGCCGAGA is 931; for GCCCGGCTTACCCGCGTCGCGGAGGTCCGCTCTCTG it is 822.
In the case of TCTGGACCCGCAGGCCGCTCAGATTCCCGGTGTCCA it was 829.
